SMILES strings stand for the structures. Among all 150,000 compounds or so, about 540 (0.36%) showed an effect of 50% or more. The list shows a part of the results.

The test system of the experiment is Plasmodium falciparum. Put plainly: Primary screen in NF54 nanoGlo assay, in single point, at 2uM, 72h; a lower Z score goes with more inhibition. Format: functional, Erythrocyte. The settings on record: timepoint 72 hour.
For orientation: % Inhibition means the drop in the measured response relative to a control, in per cent. With `C[C@H]1CN(C(=O)c2ccc(N(C)C)nn2)CCN1`, the “% Inhibition” value was 0% and the Z score turned out to be 0.03.
In the same order, the values of `O=C(CCn1cnc2cc(-c3noc(-c4cnccn4)n3)ccc21)N1CCCCCC1` are -18% and 2.95.
In the same order, the values of `CCCN(CC#N)CCN1CCOC1=O` are 7% and -0.75.
The corresponding values for `CCc1sc(C(=O)N2CCC(C(=O)O)C3CCCC32)cc1C` (stereo not given) are -1% and 0.24.
With `O=C1C(N2C(=O)[C@@H]3CCCN3C2=O)CCN1CCCc1ccccc1` (stereo not given in full), the “% Inhibition” value is listed as -6% and the Z score amounted to 0.74.
The corresponding values for `COc1ccnc(C(=O)NC2CCN(c3cc(=O)[nH]c(N)n3)CC2)c1` are -11% and 1.61.
In the same order, the values of `O=C(NC(N1CCCC[C@H]1c1cccnc1)(C(F)(F)F)C(F)(F)F)c1ccccc1Cl` are -13% and 1.68.
In the same order, the values of `O=C(NCc1ccncc1)C1(F)CCN(S(=O)(=O)c2cccnc2)CC1` are -3% and 0.36.
Consider `COc1ccc(OC)c(NC(=O)CN2CCN(C)c3ccccc32)c1`, for which the “% Inhibition” value was -6% and the Z score was 0.98.
The corresponding values for `CS(=O)(=O)c1cccc(C(=O)N2CCC[C@H]2c2cccs2)c1` are -11% and 2.14.
The corresponding values for `O=C1C(=O)N(CN2CCC(C(=O)N3CCCCCC3)CC2)c2ccc(F)cc21` are 6% and -0.83.
In the case of `CCc1cnc(C)nc1N1CC[C@H](C(=O)NC)C1`, the “% Inhibition” value is -7% and the Z score amounted to 1.32.
The corresponding values for `Cc1c(NC(=O)c2coc(C3CCC3)n2)cccc1N1CCOC1=O` are -1% and 0.16.
Regarding `Cn1cc(C[C@@H](CNS(=O)(=O)c2ccc3ccccc3c2)C(N)=O)cn1`, the “% Inhibition” value is given as -15% and the Z score was 2.06.
In the same order, the values of `CCn1nnc(NC(=O)c2cccs2)n1` are 0% and -0.05.
The corresponding values for `Cc1csc(NC(=O)C2CCN(C(=O)CCOc3ccccc3)CC2)n1` are -45% and 5.32.
The corresponding values for `O=C(CC1CCCC1)Nc1c(-c2cccc(F)c2)n[nH]c1C1CC1` are -9% and 0.86.
On to `CC1C(=O)N(CC(O)CCc2ccccc2)C(=O)C1C` (stereo not given), for which the “% Inhibition” value is reported as 0% and the Z score was 0.05.
The corresponding values for `Cc1cnc(CN[C@@H](C)c2ccc(Br)cc2)s1` are -15% and 2.34.
The corresponding values for `CNc1ccccc1C(=O)NC[C@H]1CCN(Cc2cnc(C)nc2)C1` are -11% and 1.96.
The corresponding values for `CCCc1nnc2sc(-c3ccc[nH]3)nn12` are -4% and 0.36.
`Cc1n[nH]c(=O)c2cc3c(C)n[nH]c(=O)c3cc12`: the “% Inhibition” value was -10% and the Z score was 1.05.
In the same order, the values of `CN1CCCC1C(=O)NC(c1c(F)cccc1F)C(F)(F)F` (stereo not given) are -20% and 3.85.
The corresponding values for `COC(=O)C12CCCC1CN(CC(=O)NC(C)(C)C)C2` (stereo not given) are -7% and 0.82.
The corresponding values for `COc1c(F)cc(-c2cn(C[C@H]3COCCO3)nn2)cc1Cl` are -10% and 1.87.
As to `Cn1c(CN2CCN(C(=O)c3ccccc3)CC2)cc(=O)n(C)c1=O`, the “% Inhibition” value turned out to be 0% and the Z score stood at 0.03.
In the same order, the values of `COc1c2c(c(S(=O)(=O)NC3CCCC3)c3c1C(=O)N(C)CC3)OCO2` are -11% and 1.71.
As for `O=C(c1cccc(Oc2ccc(Cl)cc2)n1)N1CC[C@@H](O)C1`, the “% Inhibition” value is -7% and the Z score was 0.6.
Consider `CCC(CC)CN(CC)CC(=O)Nc1c(C)n[nH]c1C`, for which the “% Inhibition” value is on record as -6% and the Z score is reported as 0.82.
In the same order, the values of `C[C@@H](CCC(=O)NCCc1ccc(Cl)cc1)N1CCCC1` are 2% and -0.26.
For `O=C(c1ccccc1)c1ccc2n1CC[C@H]2C(=O)Nc1cc(F)cc(F)c1`, the “% Inhibition” value was 32% and the Z score is -3.61.
The corresponding values for `CN1CCN(C(=O)CN2C(=O)CN(C(=O)Nc3ccccc3)c3ccccc32)CC1` are -11% and 1.57.
Regarding `COCCCNC(=O)C(=O)Nc1ccnn1C1CCCCC1`, the “% Inhibition” value is reported as 31% and the Z score is -0.47.
The corresponding values for `O=C(O)C[C@@H]1CCN(C(=O)Nc2ccccc2)C[C@@H]1Cc1nc2ccccc2[nH]1` are -11% and 1.79.
The corresponding values for `C[C@H]1CN(Cc2cccn2C(F)F)CC(=O)N1` are -4% and 0.69.
Consider `CN=C(NCC(=O)N(C)CC(F)(F)F)NCc1ccc(C)cc1`, for which the “% Inhibition” value amounted to 34% and the Z score was -1.21.
In the same order, the values of `COC(=O)[C@H]1CC[C@H](C(=O)Nc2nccc(C)n2)CC1` are -6% and 0.99.
In the same order, the values of `O=C(c1cccc(-n2cncn2)c1)N1CCCC1` are -11% and 1.02.
The corresponding values for `CCC1(C)CN(C(=O)NCc2nnc(C3CC3)s2)C1` are -5% and 0.71.
As to `C[C@H]1CN(C)c2ccccc2-[n+]2ccsc21`, the “% Inhibition” value is reported as 3% and the Z score is -0.49.
The corresponding values for `CNS(=O)(=O)Cc1cccc(CNc2ccc3nccn3n2)c1` are -7% and 0.71.
The corresponding values for `CN(CCCc1cnn(C)c1)[C@H]1CN(Cc2ccoc2)C[C@@H]1O` are -11% and 1.06.
Turning to `COc1cccc(CNC(=O)N2CCCS(=O)(=O)CC2)n1`, the “% Inhibition” value came out at 9% and the Z score was -1.16.
Regarding `Cc1ccc(CN(Cc2ccc(C(O)(c3ccccc3)c3ccccc3)o2)C2CC2)o1`, the “% Inhibition” value is on record as -11% and the Z score is 1.36.
As to `CC(C)[C@@H]1CCO[C@@H]1c1nc(C2CCS(=O)(=O)C2)no1` (stereo not given in full), the “% Inhibition” value was found to be 2% and the Z score is listed as -0.17.
The corresponding values for `CN1CCN(C(=O)c2ccc3nc(C4CC4)oc3c2)[C@@H](c2ccccc2)C1` are 19% and -1.66.
In the same order, the values of `CN(C1CC1)S(=O)(=O)NCC1(c2cccc(OC(F)(F)F)c2)CCC1` are 0% and 0.03.
In the same order, the values of `Cc1cnn(CCC(=O)NC2CCN(CC3CCCO3)CC2C)c1` (stereo not given) are 4% and -0.45.
For the compound `O=S(=O)(CCOc1ccc(F)cc1)N[C@H]1COC[C@@H]1O`, the “% Inhibition” value is recorded as -13% and the Z score is 1.67.
As for `CCn1cc(C(=O)N[C@@]23CCCC[C@@H]2NC(=O)C3)c(C2CC2)n1`, the “% Inhibition” value was -1% and the Z score turned out to be 0.18.
The corresponding values for `Cc1occc1CN(C)c1nnc([C@]2(C)CCCO2)n1C` are -4% and 0.4.
In the same order, the values of `Cc1ncccc1C(=O)NCCc1ncc(C)n1C1CCCCCC1` are 1% and -0.15.
In the same order, the values of `CC(C)n1cc(CNc2ccc3nccc(O)c3c2)cn1` are 0% and -0.06.
On to `CCOc1cc(CNC2CCCCC2)cc(Cl)c1OCc1ccccc1Cl`, for which the “% Inhibition” value came to 1% and the Z score is on record as -0.09.
The corresponding values for `O=C(NCCc1csc(-c2ccccc2)n1)C1CCN(C(=O)Cc2cccs2)CC1` are -8% and 1.01.

Source of the values: ChEMBL document CHEMBL4888484, “Replenishing the malaria drug discovery pipeline: Screening and hit evaluation of the MMV Hit Generation Library 1 (HGL1) against asexual blood stage Plasmodium falciparum ,using a nano luciferase reporter read-out” (2022).
